The results in this text go back to publication PMC7997005, “Dynamic interplay between the co-opted Fis1 mitochondrial fission protein and membrane contact site proteins in supporting tombusvirus replication” (PLoS Pathogens, 2021).

The chains behind the UniProt entries cited, without tags or fusion partners.
UniProt Q9M1J1: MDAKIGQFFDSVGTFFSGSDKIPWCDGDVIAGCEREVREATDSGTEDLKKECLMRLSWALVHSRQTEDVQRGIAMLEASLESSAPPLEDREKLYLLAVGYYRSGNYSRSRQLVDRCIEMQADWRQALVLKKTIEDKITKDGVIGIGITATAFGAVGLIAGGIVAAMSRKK

These are yes or no findings as the source states them, for the method shown. For some assays here: Binding seen in cells or lysates may run through a third protein. Some binding calls cover weakened binding; strength is not graded here. For some assays here: Sequences can lack the tags named with a protein.

The chains are these.
T1: TBSV Flag-p33 replication protein (tomato bushy stunt virus (TBSV)) (UniProt P15962)
T1 sequence: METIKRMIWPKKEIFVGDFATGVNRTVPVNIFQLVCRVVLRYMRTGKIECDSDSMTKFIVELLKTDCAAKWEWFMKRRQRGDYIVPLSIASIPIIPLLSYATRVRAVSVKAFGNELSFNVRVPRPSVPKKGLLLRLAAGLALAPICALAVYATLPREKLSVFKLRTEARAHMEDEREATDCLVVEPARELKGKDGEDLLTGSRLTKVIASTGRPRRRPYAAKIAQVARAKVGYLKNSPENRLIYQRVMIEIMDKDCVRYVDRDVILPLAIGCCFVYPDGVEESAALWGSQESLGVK

T2: yeast Fis1p, MYTH bait (S. cerevisiae) (UniProt P40515)
T2 sequence: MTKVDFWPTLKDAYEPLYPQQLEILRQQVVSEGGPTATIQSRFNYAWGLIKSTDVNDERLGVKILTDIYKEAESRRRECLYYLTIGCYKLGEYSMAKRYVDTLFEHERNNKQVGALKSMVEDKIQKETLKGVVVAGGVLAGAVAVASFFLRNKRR

T3: TBSV p33 replication protein, MYTH bait (tomato bushy stunt virus (TBSV)) (UniProt P15962)
T3 sequence: T1 sequence

T4: TBSV p33-cYFP replication protein (tomato bushy stunt virus (TBSV)) (UniProt P15962)
T4 sequence: T1 sequence

B1: Arabidopsis AtVAP27-1, MYTH prey (protein, UniProt Q8VZ95 1-256)
chain: MSNIDLIGMSNRDLIGMSNSELLTVEPLDLQFPFELKKQISCSLYLTNKTDNNVAFKVKTTNPKKYCVRPNTGVVLPRSTCEVLVTMQAQKEAPSDMQCKDKFLLQGVIASPGVTAKEVTPEMFSKEAGHRVEETKLRVTYVAPPRPPSPVHEGSEEGSSPRASVSDNGHGSEFSFERFIVDNKAGHQENTSEARALITKLTEEKQSAIQLNNRLQRELDQLRRESKKSQSGGIPFMYVLLVGLIGLILGYIMKRT
B2: yeast Sac1p PI4P phosphatase, MYTH prey (enzyme, UniProt P32368 1-623)
chain: MTGPIVYVQNADGIFFKLAEGKGTNDAVIHLANQDQGVRVLGAEEFPVQGEVVKIASLMGFIKLKLNRYAIIANTVEETGRFNGHVFYRVLQHSIVSTKFNSRIDSEEAEYIKLLELHLKNSTFYFSYTYDLTNSLQRNEKVGPAASWKTADERFFWNHYLTEDLRNFAHQDPRIDSFIQPVIYGYAKTVDAVLNATPIVLGLITRRSIFRAGTRYFRRGVDKDGNVGNFNETEQILLAENPESEKIHVFSFLQTRGSVPIYWAEINNLKYKPNLVLGENSLDATKKHFDQQKELYGDNYLVNLVNQKGHELPVKEGYESVVHALNDPKIHYVYFDFHHECRKMQWHRVKLLIDHLEKLGLSNEDFFHKVIDSNGNTVEIVNEQHSVVRTNCMDCLDRTNVVQSVLAQWVLQKEFESADVVATGSTWEDNAPLLTSYQNLWADNADAVSVAYSGTGALKTDFTRTGKRTRLGAFNDFLNSASRYYQNNWTDGPRQDSYDLFLGGFRPHTASIKSPFPDRRPVYIQLIPMIICAALTVLGATIFFPKDRFTSSKNLLYFAGASIVLALSTKFMFKNGIQFVNWPKLVDVGFLVVHQTHDKEQQFKGLKYAQSPKFSKPDPLKRD
B3: yeast Scs2p VAP protein, MYTH prey (protein, UniProt P40075 1-244)
chain: MSAVEISPDVLVYKSPLTEQSTEYASISNNSDQTIAFKVKTTAPKFYCVRPNAAVVAPGETIQVQVIFLGLTEEPAADFKCRDKFLVITLPSPYDLNGKAVADVWSDLEAEFKQQAISKKIKVKYLISPDVHPAQNQNIQENKETVEPVVQDSEPKEVPAVVNEKEVPAEPETQPPVQVKKEEVPPVVQKTVPHENEKQTSNSTPAPQNQIKEAATVPAENESSSMGIFILVALLILVLGWFYR
B4: Arabidopsis Fis1B, MYTH prey (protein, UniProt Q94CK3 1-167)
chain: MDAAIGKVFDSVSDFFSGAASASADEFPLCDSDIISGCEKELAEAQDEGRKKECIMRLSWALVHSKMPSDIQRGIAMLEALVVNDTSAMKLREKLYLLALGYYRSGDFSRSRDCIERCLEVEPESGQAQALKKAIEDRIVKDGVIGVGIAVTAVGVVAGIAAAILRS
B5: yeast Fis1p mitochondrial fission 1 protein, MYTH prey (protein, UniProt P40515 1-155)
chain: T2 sequence
B6: nYFP-AtFis1B (protein, UniProt Q94CK3 1-167)
chain: B4 chain
B7: His6-AtFis1B (protein, UniProt Q94CK3 1-167)
chain: B4 chain
B8: yeast His6-Sac1p (enzyme, S. cerevisiae, UniProt P32368 1-623, looked up)
chain: B2 chain
notes: Sac1p PI4P phosphatase, S. cerevisiae; source: yeast, expressed from a plasmid, in detergent-solubilized membrane fraction
B9: yeast His6-Osh6p (natural protein, S. cerevisiae, UniProt Q02201 1-448, looked up)
chain: MGSKKLTVGSDSHRLSKSSFSSNKSSHSATKDQPIDTDDIDEDDESGHNIILNIISQLRPGCDLTRITLPTFILEKKSMLERVTNQLQFPEFLLQAHSEKDPLKRFLYVMKWYLAGWHIAPKAVKKPLNPVLGEYFTAYWDLPNKQQAYYISEQTSHHPPECAYFYMIPESSIRVDGVVIPKSRFLGNSSAAMMDGSTVLQFLDIKDGNGKPEKYVLTQPNVYVRGILFGKMRIELGDHMIIKSPNFQADIEFKTKGYVFGTYDAIEGTVKDYDGNAYYEISGKWNDVMYLKDLKQPRSSPKVFLDTHKESPLRPKVRPLSEQGEYESRKLWKKVTDALAVRNHPVATEEKFQIEDHQRQLAKKRIEDGVEFHPKLFRRSKPGEDLDYCIYKNIPVDEDPEKQIRSILQIAPILPGQQFTDKFFIPAFEKIKSQKKMIENEKQNPAKQ
notes: source: yeast, expressed from a plasmid, in detergent-solubilized membrane fraction
B10: yeast His6-Fis1p (natural protein, S. cerevisiae, UniProt P40515 1-155, looked up)
chain: T2 sequence
notes: Fis1p mitochondrial fission 1 protein, S. cerevisiae; also called HisScFis1; source: yeast, expressed from a plasmid, in detergent-solubilized membrane fraction
B11: yeast His6-Scs2p VAP protein (protein, UniProt P40075 1-244)
chain: B3 chain

In the first experiment the target is T1, TBSV Flag-p33 replication protein (tomato bushy stunt virus (TBSV)). Briefly: co-IP; Flag-affinity purification of Flag-tagged replication proteins (TBSV Flag-p33 + Flag-p92pol or CIRV Flag-p36 + Flag-p95pol) from the detergent-solubilized membrane fraction of yeast; samples cross-linked with formaldehyde; co-purified His6-tagged proteins detected with anti-His antibody; WT, fis1Δ, Fis1p- or Dnm1-ZZ-over-expressing yeast; cycloheximide time course.
For the molecule “His6-Fis1-ΔN54 (from UniProt P40515 55-155) (domain or fragment)”, the binding result is “binds weakly”.

As for “His6-Fis1p with deletion of 92 N-terminal amino acids (from UniProt P40515 93-155) (domain or fragment)”, the binding result is “binds weakly”.

With “His6-AtFis1A (from UniProt Q9M1J1 1-170)”, the binding result was “binds”.

Take “His6-Fis1-ΔC25 (from UniProt P40515 1-130) (domain or fragment)”: the binding result is given as “binds”.

Another experiment has as its target T2, yeast Fis1p, MYTH bait (S. cerevisiae). Nature of the experiment: two-hybrid; split-ubiquitin-based membrane yeast two-hybrid assay (MYTH) in yeast; bait (TBSV p33 or yeast Fis1p) co-expressed with NubG prey proteins.
Take B1: the binding result is “binds”.

B2: the binding result is recorded as “binds”.

B3: the binding result is “binds”.

Another experiment has as its target T3, TBSV p33 replication protein, MYTH bait (tomato bushy stunt virus (TBSV)). The description is as above.
“Arabidopsis Fis1A, MYTH prey (from UniProt Q9M1J1 1-170)”: the binding entry is listed as “binds”.

As to “Fis1p with deletion of 92 N-terminal amino acids, MYTH prey (from UniProt P40515 93-155) (domain or fragment)”, the binding result was “binds weakly”.

As to “Fis1-ΔN54, MYTH prey (from UniProt P40515 55-155) (domain or fragment)”, the binding entry is listed as “binds weakly”.

Take “Fis1-ΔC25, MYTH prey (from UniProt P40515 1-130) (domain or fragment)”: the binding entry is given as “binds”.

With B4, the binding entry is recorded as “binds”.

Consider B5, for which the binding result is “binds”.

Another experiment addresses T4, TBSV p33-cYFP replication protein (tomato bushy stunt virus (TBSV)). Nature of the experiment: split reporter; BiFC (nYFP/cYFP fusions, 35S promoter, co-agroinfiltration) in N. benthamiana leaves infected with TBSV or CIRV; confocal microscopy; includes TRV-MBP control plants.
On to “nYFP-AtFis1A (from UniProt Q9M1J1 1-170)”, for which the binding result is “binds”.

On to B6, for which the binding result was “binds”.

The next experiment addresses T1, TBSV Flag-p33 replication protein (tomato bushy stunt virus (TBSV)). Briefly: co-IP; Flag-affinity purification of Flag-tagged replication proteins (TBSV Flag-p33 + Flag-p92pol or CIRV Flag-p36 + Flag-p95pol) from the detergent-solubilized membrane fraction of yeast; samples cross-linked with formaldehyde; co-purified His6-tagged proteins detected with anti-His antibody; WT, fis1Δ, Fis1p- or Dnm1-ZZ-over-expressing yeast; cycloheximide time course. This is another data set of the same source.
As for B7, the binding entry is given as “binds”.

Consider B8, for which the binding result is “binds”.

For B9, the binding entry is “binds”.

Regarding B10, the binding result is “binds”.

In the case of B11, the binding result is reported as “binds”.
